Data from PubChem BioAssay (NCI).
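Grown in 96-well plates, cells were treated for 48 hours with each compound at five concentrations. Insufficient inhibition: endpoint recorded as highest concentration tested. The concentration for 50% growth inhibition is given as GI50. TGI is the concentration that stops growth completely.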

These molecules were tested on NCI-H322M lung (assay: NCI tumour cell line growth inhibition, 48 h).
`O=c1[nH]c(=O)n(C2CC(O)C(CO)O2)cc1C#Cc1ccc(C(F)(F)F)cc1` (centres undefined) showed a TGI of over 100 µM. `COc1ccccc1C1C(C#N)=C(N)OC2=C1C(=O)CCC2` (centres undefined) was tested, and the GI50 was over 100 µM and the TGI was over 100 µM. `COc1ccc(N2C(=O)C3c4[nH]c5ccc(C)cc5c4C4CCC(C(C)C)CC4C3C2=O)cc1` (centres undefined) was tested, and the TGI was over 100 µM. With `O=c1oc2ccccc2cc1-c1nc2ccc([N+](=O)[O-])cc2o1` the TGI was over 100 µM. For `COc1ccc(/C=N/Nc2[nH]c(=S)nc3[nH]ncc23)cc1`, the TGI was 93.1 µM. `O=[N+]([O-])c1ccc2nc3ccc([N+](=O)[O-])cn3c2c1` gave a TGI of over 100 µM. Work on `CCCCCCCCCCCCC(=O)NCC(=O)NC(Cc1ccccc1)C(=O)Oc1ccc([N+](=O)[O-])cc1` (centres undefined) yielded a TGI of over 100 µM. With `O=C(c1ccccc1F)c1c(NCc2ccccc2)c(=O)c1=O` the TGI was over 100 µM. Molecule `O=C1C=C(Nc2cccc(Br)c2)c2ccccc2C1=O` has a GI50 of 4.88 µM and a TGI of over 100 µM. In the case of `c1ccc(SCCCC(Sc2ccccc2)Sc2ccccc2)cc1`, the TGI is reported as over 100 µM. With `O=C(/C=C/N1CCN(c2cccc(C(F)(F)F)c2)CC1)c1ccc(Cl)cc1Cl` the GI50 was 26.6 µM and the TGI was 68.4 µM. `Cc1ccc(C2=Nc3c(N)ncnc3NC(c3cccc(Nc4ccnc5cc(C(F)(F)F)ccc45)c3)C2)cc1` (centres undefined) was tested, and the GI50 was 5.21 µM and the TGI was over 100 µM. In the case of `C/C(=N\NS(=O)(=O)c1ccc(C)cc1)c1ccc[n+]([O-])n1`, the TGI is reported as over 100 µM. Work on `CN(C)c1ccc(C(=NNC(=O)c2cc3ccccc3[nH]2)c2ccc(N(C)C)cc2)cc1` yielded a TGI of over 100 µM. `CN(C)c1ccc(-c2nc(-c3cc4c(ccc5ccccc54)oc3=O)cs2)cc1` was tested, and the TGI was over 100 µM. `O=S1(=O)NNC(=NCc2ccc(F)cc2)c2ccccc21` showed a TGI of over 100 µM. Work on `CC1=NN(C(=O)CC(=O)Nc2cccc(Cl)c2)C(=O)C1N=Nc1ccc(S(N)(=O)=O)cc1` (centres undefined) yielded a TGI of over 100 µM. `CC1(C)CC(=O)C(/C=N/c2nc(-c3ccc(Br)cc3)cs2)=C(O)C1` showed a TGI of over 100 µM. `CCCC/C(=N\N=C(N)N)c1ccc(F)cc1` showed a GI50 of 5.91 µM and a TGI of 19 µM. Molecule `Oc1cc2cc(-c3ccccc3)[nH]c2c2ccccc12` has a TGI of over 100 µM. In the case of `O=C1c2ccccc2S(=O)(=O)c2ccccc21`, the TGI is reported as over 100 µM. `N#Cc1c2c(c(N=[N+]=[N-])n3c1nc1ccccc13)CCCC2` gave a TGI of 25.7 µM. `CC(C)(CN1CCCCC1)C(=O)CC(SCCS(=O)(=O)O)c1ccc(Br)cc1` (centres undefined) showed a TGI of 9.08 µM. For `CN1C(=O)c2cc(Cl)nc3c(NC(=O)c4cccc(Cl)c4)c(Cl)c(NC(=O)c4cccc(Cl)c4)c1c23`, the GI50 was 2.95 µM and the TGI was 12 µM. `CC1=NN(c2nc(N)nc(/C(C#N)=C/c3ccncc3)n2)C(C)(C)C1` gave a TGI of over 100 µM. With `CC1Cc2c(N(C)C)ncnc2N(C)c2ccc(Cl)cc21` (centres undefined) the GI50 was 5.13 µM and the TGI was over 100 µM. In the case of `COC(=O)c1c(C)oc2ccc(OC(C)=O)cc12`, the TGI is reported as over 100 µM. Molecule `CC1=NNC(N)=N/C1=C/C(Sc1ccc(Cl)cc1)c1cccs1` (centres undefined) has a TGI of 88.6 µM. In the case of `CCCCN(CCCC)C(=NCc1ccccc1)NC#N`, the TGI is reported as over 100 µM. For `CCN(CC)CCC(=O)Nc1ccc(Cn2nnc3c2C(=O)c2nnn(Cc4ccc(NC(=O)CCN(CC)CC)cc4)c2C3=O)cc1`, the GI50 was 0.464 µM and the TGI was 1.51 µM. Molecule `COc1cccc(-c2nn(-c3ccccc3)cc2-c2ccnc(NCCNC(=O)Nc3ccc(Cl)c(Cl)c3)c2)c1` has a GI50 of 2.24 µM and a TGI of 10.2 µM. With `Cc1cc(CS(=O)(=O)/C=C/c2ccccc2[N+](=O)[O-])c(CS(=O)(=O)/C=C/c2ccccc2[N+](=O)[O-])cc1C` the TGI was over 100 µM. `COc1cc2c3c(c1OC)-c1ccccc1C(C(OC(C)=O)c1ccccc1)C3N(C)CC2` (centres undefined) showed a TGI of over 100 µM. With `COc1ccc(C2CC(c3c(C)nn(-c4ccccc4)c3-c3ccc(C)cc3O)=NN2c2ccccc2)cc1` (centres undefined) the TGI was over 100 µM. In the case of `CCOC(=O)CCC1(C(=O)OC)CCCC1=O` (centres undefined), the TGI is reported as over 100 µM. `C[C@@H](NC(=O)Cc1cc(F)cc(F)c1)C(=O)N[C@@]1(C)N=C(c2ccccc2)c2ccccc2N(C)C1=O` showed a GI50 of 41.8 µM and a TGI of over 100 µM. In the case of `COC(=O)Cc1c(C2=Nc3ccccc3C2(O)CC(=O)OC)[nH]c2ccccc12` (centres undefined), the TGI is reported as over 100 µM. Work on `COc1cn2c(cc1=O)COc1ccc(-c3ccccc3)cc1-2` yielded a TGI of over 100 µM. Molecule `Cc1ncc([N+](=O)[O-])n1CCN=[N+]=[N-]` has a TGI of over 100 µM. Work on `COc1c(O)c(OC)c(C(=O)/C=C/c2ccccc2)c(O)c1OC` yielded a TGI of over 100 µM. Molecule `C/C(=N\N=C(N)N)c1c(C(=O)OCCCCCCOC(=O)c2nc3sccn3c2/C(C)=N/N=C(N)N)nc2sccn12` has a TGI of over 100 µM. `COc1cc(N=Nc2cccc(S(=O)(=O)O)c2)c(C)cc1N=Nc1ccc(/C=C/c2ccc(N=[N+]([O-])c3ccc(/C=C/c4ccc(N=Nc5cc(C)c(N=Nc6cccc(S(=O)(=O)O)c6)cc5OC)cc4)c(S(=O)(=O)O)c3)cc2S(=O)(=O)O)cc1` showed a TGI of over 100 µM. Work on `O=C1c2cc(Cl)ccc2-n2c(noc2=O)C2CSCN12` (centres undefined) yielded a TGI of over 100 µM. `CN1CC2(CCCCC2)C(O)C12C=CCCC2` (centres undefined) showed a TGI of over 100 µM. `CN(C)c1ccc(/C=C(\NC(=O)c2ccccc2)C(=O)Nc2ccccc2C(=O)NN2C(=O)CSC2c2ccc(N(C)C)cc2)cc1` (centres undefined) was tested, and the TGI was over 100 µM. `COc1cc(C2C3=C(COC3=O)N(CCO)c3cc4c(cc32)CCC4)cc(OC)c1O` (centres undefined) showed a GI50 of 1.07 µM and a TGI of over 32.5 µM. Molecule `C/C(=N\N(C)C)C(CN(C)C)C(c1ccccc1)c1c(O)c2ccccc2oc1=O` (centres undefined) has a TGI of over 100 µM. With `N#Cc1c(N)c(-c2ccc(Cl)cc2)c(F)c2ccccc12` the TGI was over 100 µM.
